This is an account of results in patent US8067379B2, “Sulfur compounds as inhibitors of hepatitis C virus NS3 serine protease” (Schering Corporation, priority 2004, dated 2011).

Structures are written as SMILES. Starred links: 1 amine or outer side, 2 acyl side, 3 side chain; linkers in the order of their positions; H or OH if unused. Non-standard residues stand in square brackets, D forms with d. Residues, ends and D or L forms follow the SMILES beside them. *: point of attachment. Pro(3R,4S-CMe2) = CC1(C)[C@@H]2[C@@H](C(=O)O)NC[C@@H]21; X1 = O=S(=O)(CC1(N*)CCCCC1)c1ccccc1; X2 = O=C(C(=O)[*:2])C(CC1CC1)N[*:1]; Phg = N[C@H](C(=O)O)c1ccccc1; Tle = CC(C)(C)[C@H](N)C(=O)O; CO = O=C([*:1])[*:2]

One assay addresses Recombinant heterodimeric HCV NS3/NS4A protease (strain 1a) (Hepatitis C virus genotype 1a, UniProt P27958). As to the kind of experiment: Spectrophotometric assay for HCV serine protease inhibitory activity (chromogenic ester substrates). The settings on record: Table 3, sulfide compounds; HCV serine protease; read-out: Ki* range. In kind it is biochemical.
As for `CC(C)(C)[C@H](NC(=O)NC1(CSc2ccccc2)CC1)C(=O)N1C[C@H]2[C@@H]([C@H]1C(=O)NC(CC1CC1)C(=O)C(N)=O)C2(C)C` (stereo partly drawn) [Compound 110], the inhibition constant (Ki) is under 75 nM.
The same measure, in the same setting: then `C#CCCC(NC(=O)[C@@H]1[C@@H]2[C@H](CN1C(=O)[C@@H](NC(=O)NC1(CCSC(C)(C)C)CCCCC1)C(C)(C)C)C2(C)C)C(=O)C(=O)NCC=C` (stereo partly drawn) [Compound 131], with 75 to 250 nM.

The assay is the same for the next values; noted with them: Table 3, sulfone compounds, rows without Prep. Ex. number; read-out: Ki* (numeric value, unlabelled structures at end of sulfone table, column without head).
Turning to `CC1([C@H](NC(=O)NC2(CS(=O)(=O)C(C)(C)C)CCCCC2)C(=O)N2C[C@H]3[C@@H]([C@H]2C(=O)NC(CC2CC2)C(=O)C(=O)NC2CC2)C3(C)C)CCCCC1` (stereo partly drawn), the Ki was found to be 12 nM.
In the case of `C#CCCC(NC(=O)[C@@H]1[C@@H]2[C@H](CN1C(=O)[C@@H](NC(=O)NC1(CS(=O)(=O)C(C)(C)C)CCCCC1)C1(C)CCCCC1)C2(C)C)C(=O)C(=O)NC1CCC1` (stereo partly drawn), the Ki stood at 10 nM.

Staying with this assay, now noted: Table 3, sulfone compounds; HCV serine protease; read-out: Ki* range.
Turning to `CCS(=O)(=O)CC1(NC(=O)N[C@H](C(=O)N2C[C@H]3[C@@H]([C@H]2C(=O)NC(CC2CC2)C(=O)C(N)=O)C3(C)C)C(C)(C)C)CCCCC1` (stereo partly drawn) [Compound 202], the Ki was under 75 nM.
Still for that read-out and setting: then `CN(C)C(=O)[C@@H](NC(=O)CNC(=O)C(=O)C(CC1CC1)NC(=O)[C@@H]1[C@@H]2[C@H](CN1C(=O)[C@@H](NC(=O)NC1(CS(=O)(=O)c3ccccc3)CCCCC1)C(C)(C)C)C2(C)C)c1ccccc1` (stereo partly drawn) [Compound 188] ({X1-CO}-[Tle][Pro(3R,4S-CMe2)][X2]G[Phg]-NMe2), with under 75 nM; and `CC(C)(C)[C@H](NC(=O)NC1(CS(=O)(=O)c2cccc(O)c2)CCCCC1)C(=O)N1C[C@H]2[C@@H]([C@H]1C(=O)NC(CC1CC1)C(=O)C(N)=O)C2(C)C` (stereo partly drawn) [Compound 199], with under 75 nM; and `C#CCCC(NC(=O)[C@@H]1[C@@H]2[C@H](CN1C(=O)[C@@H](NC(=O)NC1(CS(=O)(=O)c3ccccc3)CCCCC1)C(C)(C)C)C2(C)C)C(=O)C(=O)NCC=C` (stereo partly drawn) [Compound 181], with under 75 nM.
With `CC(C)(C)[C@H](NC(=O)NC1(CS(=O)(=O)C(C)(C)C)CCCCC1)C(=O)N1C[C@H]2[C@@H]([C@H]1C(=O)NC(CC1CC1)C(=O)C(N)=O)C2(C)C` (stereo partly drawn) [Compound 203], the Ki is under 75 nM.
Still for that read-out and setting: next, `CC(C)(C)[C@H](NC(=O)N[C@H](CS(=O)(=O)Cc1ccccc1)C(C)(C)C)C(=O)N1C[C@H]2[C@@H]([C@H]1C(=O)NC(CC1CCC1)C(=O)C(N)=O)C2(C)C` (stereo partly drawn) [Compound 170]: under 75 nM.
Same read-out and setting: next, `CC(C)CC(C)(CS(=O)(=O)Cc1ccccc1)NC(=O)N[C@H](C(=O)N1C[C@H]2[C@@H]([C@H]1C(=O)NC(CC1CC1)C(=O)C(N)=O)C2(C)C)C(C)(C)C` (stereo partly drawn) [Compound 195]: under 75 nM; `C#CCCC(NC(=O)[C@@H]1[C@@H]2[C@H](CN1C(=O)[C@@H](NC(=O)NC1(CS(=O)(=O)C(C)(C)C)CCCCC1)C(C)(C)C)C2(C)C)C(=O)C(=O)NCCC=C` (stereo partly drawn) [Compound 249]: under 75 nM; `CC(C)(C)[C@H](NC(=O)NC1(CS(C)(=O)=O)CCCCC1)C(=O)N1C[C@H]2C[C@@H]([C@H]1C(=O)NC(CC1CC1)C(=O)C(N)=O)C2(C)C` (stereo partly drawn) [Compound 234]: over 250 nM.
Still for that read-out and setting: then `CCCNC(=O)C(=O)C(CCC)NC(=O)[C@@H]1[C@@H]2[C@H](CN1C(=O)[C@@H](NC(=O)NC1(CS(=O)(=O)C(C)(C)C)CCCCC1)C(C)(C)C)C2(C)C` (stereo partly drawn) [Compound 239], with under 75 nM.

The assay is the same for the next values; noted with them: Table 3A; class symbols; read-out: Ki* Range.
In the case of `CC1(C)[C@@H]2[C@@H](C(=O)NC(CC3CCC3)C(=O)C(=O)NC3CC3)N(C(=O)[C@@H](NC(=O)NC3(CS(=O)(=O)C(C)(C)C)CCCCC3)C3CCCCC3)C[C@@H]21` (stereo partly drawn) [Compound 520], the inhibition constant (Ki) is 75 to 250 nM.
Turning to `CCCC[C@H](NC(=O)[C@@H]1[C@@H]2[C@H](CN1C(=O)[C@@H](NC(=O)NC1(CS(=O)(=O)C(C)(C)CC)CCCCC1)C1(C)CCCCC1)C2(C)C)C(=O)C(=O)NCC` [Compound 883-bz], the Ki was under 75 nM.
For `CC(C)CCC(NC(=O)[C@@H]1[C@@H]2[C@H](CN1C(=O)[C@@H](NC(=O)NC1(CS(=O)(=O)C(C)(C)C)CCCCC1)C1(C)CCCCC1)C2(C)C)C(=O)C(=O)NC1CC1` (stereo partly drawn) [Compound 578], the Ki was 75 to 250 nM.
`C#CCNC(=O)C(=O)C(CCC)NC(=O)[C@@H]1[C@@H]2[C@H](CN1C(=O)[C@@H](NC(=O)NC1(CS(=O)(=O)C(C)(C)C)CCCCC1)C1(C)CCCCC1)C2(C)C` (stereo partly drawn) [Compound 439]: the Ki was under 75 nM.
`CCCC[C@H](NC(=O)[C@@H]1[C@@H]2[C@H](CN1C(=O)[C@@H](NC(=O)NC1(CS(=O)(=O)C3(C)CCOCC3)CCCCC1)C(C)(C)C)C2(Cl)Cl)C(=O)C(=O)NCCC` [Compound 883-dc]: the Ki is under 75 nM.
With `C=CCNC(=O)C(=O)C(CC1CC1)NC(=O)[C@@H]1[C@@H]2[C@H](CN1C(=O)[C@@H](NC(=O)N[C@]1(CS(=O)(=O)C(C)(C)C)CC[C@H](C(C)C)CC1)C1(C)CCCCC1)C2(C)C` (stereo in doubt) [Compound 621], the Ki is over 250 nM.
Same read-out and setting: then `CCCC(NC(=O)[C@@H]1[C@@H]2[C@H](CN1C(=O)[C@@H](NC(=O)NC1(CS(=O)(=O)C(C)(C)C)CCCCC1)C(C)(C)C)C2(C)C)C(=O)C(=O)NC1CC1` (stereo partly drawn) [Compound 498], with under 75 nM; and `CNC(=O)C(=O)[C@H](CC1CC1)NC(=O)[C@@H]1[C@@H]2[C@H](CN1C(=O)[C@@H](NC(=O)NC1([C@@H]3CCCS3(=O)=O)CCCCC1)C1(C)CCCCC1)C2(C)C` [Compound 883-ey], with under 75 nM.
The same measure, in the same setting: then `C=CCNC(=O)C(=O)[C@H](CC1CC1)NC(=O)[C@@H]1[C@@H]2[C@H](CN1C(=O)[C@@H](NC(=O)NC1(C3OCCS3(=O)=O)CCCCC1)C(C)(C)C)C2(C)C` (stereo partly drawn) [Compound 883-q], with under 75 nM; and `C#CCCC(NC(=O)[C@@H]1[C@@H]2[C@H](CN1C(=O)[C@@H](NC(=O)NC1(CS(=O)(=O)C(C)(C)C)CCCCC1)C(C)(C)C)C2(C)C)C(=O)C(=O)NC1CCCC1` (stereo partly drawn) [Compound 512], with under 75 nM; and `CCCC[C@@H](NC(=O)[C@@H]1[C@@H]2[C@H](CN1C(=O)[C@@H](NC(=O)NC1(CS(=O)(=O)C(C)(C)C)CCCCC1)C(C)(C)C)C2(Cl)Cl)C(=O)C(=O)NCC` [Compound 883-bg], with 75 to 250 nM.
On the same count and under the same terms, then `C=CCNC(=O)C(=O)C(CC1CC1)NC(=O)[C@@H]1[C@@H]2[C@H](CN1C(=O)[C@@H](NC(=O)NC1(CS(=O)(=O)C3CCCC3)CCCCC1)C1(C)CCCCC1)C2(C)C` (stereo partly drawn) [Compound 544], with under 75 nM.
In the case of `CC(C)(C)[C@H](NC(=O)NC1(CS(=O)(=O)C(C)(C)C)CCCCC1)C(=O)N1C[C@H]2[C@@H]([C@H]1C(=O)NC(CCC(F)(F)F)C(=O)C(=O)NC1CC1)C2(C)C` (stereo partly drawn) [Compound 514], the Ki is under 75 nM.
The same measure, in the same setting: next, `C=CCNC(=O)C(=O)C(CC1CC1)NC(=O)[C@@H]1[C@@H]2[C@H](CN1C(=O)[C@@H](NC(=O)NC1(CS(=O)(=O)C(C)(C)C)CCCCC1)C1(C)CCCCC1)[C@@]2(C)COc1ccccc1` (stereo partly drawn) [Compound 456]: 75 to 250 nM.
The same measure, in the same setting: then `C=CCNC(=O)C(=O)[C@@H](CC1CC1)NC(=O)[C@@H]1CC2(CN1C(=O)[C@@H](NC(=O)NC1(CS(=O)(=O)C(C)(C)C)CCCCC1)C(C)(C)C)SCCCS2` [Compound 777], with 75 to 250 nM.
Turning to `CC1([C@H](NC(=O)NC2(CS(=O)(=O)C(C)(C)C)CCCCC2)C(=O)N2C[C@H]3[C@@H]([C@H]2C(=O)NC(CCC2CC2)C(=O)C(=O)NC2CC2)C3(C)C)CCCCC1` (stereo partly drawn) [Compound 472], the Ki was under 75 nM.
`CCC[C@H](NC(=O)[C@@H]1[C@@H]2[C@H](CN1C(=O)[C@@H](NC(=O)NC1([C@@H]3CCCS3(=O)=O)CCCCC1)C(C)(C)C)C2(Cl)Cl)C(=O)C(=O)NC1CC1` [Compound 816]: the Ki is under 75 nM.
Still for that read-out and setting: next, `CCCC[C@H](NC(=O)[C@@H]1[C@@H]2[C@H](CN1C(=O)[C@@H](NC(=O)NC1([C@H]3CC(C)(C)CCS3(=O)=O)CCCCC1)C(C)(C)C)C2(C)C)C(=O)C(=O)NC1CC1` [Compound 883-k]: under 75 nM; `CC(C)(C)[C@H](NC(=O)NC1([C@H]2CCCS2(=O)=O)CCCCC1)C(=O)N1C[C@H]2[C@@H]([C@H]1C(=O)N[C@@H](CCC1CC1)C(=O)C(=O)NCCF)C2(C)C` [Compound 883-eg]: under 75 nM.
Same read-out and setting: next, `C=CCNC(=O)C(=O)C(CCCC)NC(=O)[C@@H]1[C@@H]2[C@H](CN1C(=O)[C@@H](NC(=O)NC1(CS(=O)(=O)C(C)(C)C)CCCCC1)C1CCCCC1)C2(C)C` (stereo partly drawn) [Compound 426]: under 75 nM; `CCC[C@H](NC(=O)[C@@H]1[C@@H]2[C@H](CN1C(=O)[C@@H](NC(=O)NC1([C@@H]3CCCS3(=O)=O)CCCCC1)C(C)(C)C)C2(C)C)C(=O)C(=O)NC1CC1` [Compound 836]: under 75 nM.
On the same count and under the same terms, next, `C=CCNC(=O)C(=O)C(CC1CC1)NC(=O)[C@@H]1C[C@@H](CNC(C)=O)CN1C(=O)[C@@H](NC(=O)NC1(CS(=O)(=O)C(C)(C)C)CCCCC1)C(C)(C)C` (stereo partly drawn) [Compound 682]: over 250 nM; `C=CCNC(=O)C(=O)[C@H](CCCC)NC(=O)[C@@H]1[C@@H]2[C@H](CN1C(=O)[C@@H](NC(=O)NC1([C@H]3CCCS3(=O)=O)CCCCC1)C(C)(C)C)C2(Cl)Cl` [Compound 813]: under 75 nM.
Turning to `C=CCNC(=O)C(=O)C(CC1CC1)NC(=O)[C@@H]1[C@@H]2[C@H](CN1C(=O)[C@@H](NC(=O)NC1(CS(=O)(=O)C(C)(C)C)CCCCC1)C1(C)Cc3ccccc3C1)C2(C)C` (stereo partly drawn) [Compound 626], the Ki was under 75 nM.
Consider `C=CCNC(=O)C(=O)C(CCCC)NC(=O)[C@@H]1[C@@H]2[C@H](CN1C(=O)[C@@H](NC(=O)NC1(CS(=O)(=O)C(C)(C)C)CCCCC1)C1(C)CCCCC1)C2(C)C` (stereo partly drawn) [Compound 424], for which the Ki was under 75 nM.
Still for that read-out and setting: then `CCCC(NC(=O)[C@@H]1[C@@H]2[C@H](CN1C(=O)[C@@H](NC(=O)NC1(CS(=O)(=O)C(C)(C)COC3CCCCO3)CCCCC1)C1(C)CCCCC1)C2(C)C)C(=O)C(=O)NC1CC1` (stereo partly drawn) [Compound 675], with under 75 nM; and `CC1([C@H](NC(=O)NC2(CS(=O)(=O)C(C)(C)C)CCCCC2)C(=O)N2C[C@H]3[C@@H]([C@H]2C(=O)NC(CC2CC2)C(=O)C(=O)NCc2ccccc2)C3(C)C)CCCCC1` (stereo partly drawn) [Compound 693], with under 75 nM; and `CNC(=O)C(=O)C(CCC1CC1)NC(=O)[C@@H]1[C@@H]2[C@H](CN1C(=O)[C@@H](NC(=O)NC1(CS(=O)(=O)C(C)(C)C)CCCCC1)C(C)(C)C)C2(C)C` (stereo partly drawn) [Compound 526], with under 75 nM.
